The test has as its system 439559-082-T-J2-PDC complex spheroid growth. Nature of the test: Anticancer human tumor 439559-082-T-J2-PDC patient-derived colon adenocarcinoma cell line growth inhibition [Asc]. As to conditions: compound alone 0.00316 µM; stronger effect = lower value. The method, then: Multicellular complex tumor spheroid response to apoptosis pathway targeting inhibitors Alrizomadlin, Pelcitoclax, and Dasminapant in combination with a variety of drugs and investigational agents in selected tumor cell lines
The MDM2 inhibitor alrizomadlin, the Bcl-2/Bcl-xL inhibitor pelcitoclax, and the IAPs inhibitor dasminapant were evaluated both individually and in combination with standard of care and investigational anticancer small molecules within a complex spheroid model of solid tumors. . Complex spheroids include a stromal component modeled by human endothelial cells (HUVEC) and fibroblasts modeled by human mesenchymal stem cells (MSCs). The concentration ranges selected for each drug and investigational agent were based upon clinically achievable concentrations if the clinical Cmax of the agent was known.
Compounds. […] If the clinical Cmax for an agent had not been determined, the highest concentration tested was 10 microM. […]

The structures appear in SMILES notation. Some entries of the source have several records that differ or are many. The list is limited to them. The source may hold further records. The records of an entry are repeated measurements across runs, samples, wells, individuals or studies. Marks such as [2022-09] give the month of the run.
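Also: spheroids exposed to agents for 7 days starting day 3 after seeding; percent of DMSO vehicle control viability with 100% = vehicle.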

Broadly, the viability, T/C is the result in the treated group divided by that in the control group, in per cent. Regarding `CNC(C)C(=O)NC1CN(S(=O)(=O)c2cccc(S(=O)(=O)N3CCC4CCC(C(=O)NC(c5ccccc5)c5ccccc5)N4C(=O)C(NC(=O)C(C)NC)C3)c2)CCC2CCC(C(=O)NC(c3ccccc3)c3ccccc3)N2C1=O` (stereo unspecified), the viability, T/C is 99.4%, 109% [2022-10] and 54.2, 105, 106, 108, 114, 101, 103% [2022-11].

Source of the values: PubChem BioAssay AID1963423 (Molecular Pharmacology Branch, DTP, NCI, 2024).
